The whole screen tested about 420,000 compounds, of which about 50,000 (12%) were called active. Inconclusive results, whose numbers are uncertain, are shown with a selection of clear calls. Calls follow the shape of the dose curve; as a rule, active = well fitted inhibition curve with a large enough effect; inconclusive = small, poorly fitted or top-dose-only effect; inactive = flat fitted curve, though single readings scatter. Potencies of inconclusive entries are left out as doubtful fits.
Assay: qHTS for Inhibitors of human tyrosyl-DNA phosphodiesterase 1 (TDP1): qHTS in cells in presence of CPT; also: nearly all actives have a fitted effect of over 55% in size
Details: chicken DT40 Tdp1-/-;hTDP1 cells + 20 nM CPT, ATP luminescence, 48 h; series mostly up to 46.2 µM
How it was run: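 Chicken DT40 Tdp1-/- cells stably complemented with human TDP1 were seeded at 400 cells/well in medium containing 20 nM camptothecin, exposed to pin-transferred compounds, and grown at 37 °C for at least 48 hr. Viability was read as ATP luminescence.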
Potency is read from the fitted curve at half-maximal effect; tags tell the direction and shape of the fitted curve.

Row | SMILES | Potency
1 | O=C1C=C(c2ccccc2)CC(c2ccc(F)cc2)C1 (configuration not stated) | inconclusive [inhibitor, single point]
2 | Cc1cnc(C(=O)NC2CCSc3ccccc32)cn1 (configuration not stated) | inactive
3 | O=C1N=c2ccccc2=C1c1sc(=O)[nH]c1O | inconclusive [inhibitor, single point]
4 | Cc1ccc(S(=O)(=O)N2CCOCC2)cc1NC(=O)C1=NN(c2ccccc2)C(=O)CC1 | inactive
5 | CN1C(=O)CS(=O)c2ccc(C(=O)NC3CC3)cc21 (configuration not stated) | inactive
6 | Cc1ccc(-n2c(Cl)c(Cl)nc(Cl)c2=O)cc1 | active: 0.291 µM
7 | Cc1c(C(=O)N2CCN(c3ccccn3)CC2)oc2ccccc12 | inconclusive [inhibitor, single point]
8 | Cc1cnc(CNc2ncncc2-c2ccccc2CN(C)C)cn1 | inactive
9 | CC(C)CNc1oc(-c2ccco2)nc1C#N | inactive
10 | CCCn1c(C)cc(C(=O)CN2C(=O)c3ccccc3C2=O)c1C | inconclusive [inhibitor, single point]
11 | CC(=O)Nc1ccc(S(=O)(=O)NNc2ccc([N+](=O)[O-])cc2)cc1 | inconclusive [inhibitor, single point]
12 | COc1ccccc1NC(=O)Nc1nc(CC(=O)N2CCN(c3ccc(F)cc3)CC2)cs1 | inconclusive [inhibitor, single point]
13 | COc1ccc(C)cc1NC(=O)CCn1nc(C)cc1C | inactive
14 | CCOC(=O)C(C)Oc1ccccc1C1NC(=O)NC(C)=C1C(=O)Nc1ccc(C)c(C)c1 (configuration not stated) | inconclusive [inhibitor, partial curve, poor fit]
15 | Cc1ccc(NC(=O)Cn2c(=O)c(CNc3ccccc3)cc3cc4c(cc32)OCCO4)cc1 | inconclusive [inhibitor, single point]
16 | CC(=O)c1ccc(Oc2nc3c(c(=O)n(C)c(=O)n3C)n2C)cc1 | inactive
17 | COC(=O)c1ccc(COc2ccc(/C=N/NC(N)=S)cc2)o1 | inconclusive [inhibitor, single point]
18 | CCN(CC)C(=O)C1=C(C)Nc2nc3ccccc3n2C1c1cccc(Cl)c1 (configuration not stated) | inconclusive [inhibitor, single point]
19 | COCc1nnc(SCC(=O)NCc2ccccc2)n1-c1ccccc1 | inactive
20 | CN(C)c1ncc2nc(CCc3ccccc3)c(=O)n(Cc3ccc(F)cc3)c2n1 | inactive
21 | O=C(Nc1ccc(O)c(-c2nc3ccccc3o2)c1)C1(c2ccc(Br)cc2)CCCC1 | inconclusive [inhibitor, single point]
22 | COc1ccc(-c2nc3n(n2)C(c2ccccc2)C2=C(CCCC2=O)N3)cc1OC (configuration not stated) | inactive
23 | COc1ccc(-n2nc(C(=O)NCCCN3CCCC3=O)c3c4ccccc4n(C)c3c2=O)cc1Cl | inactive
24 | CCC(=O)c1ccc(N2CCN(C(=O)c3cccs3)CC2)c(F)c1 | inconclusive [inhibitor, single point]

Row | SMILES | Potency
25 | CCOC(=O)c1nnc(-c2ccccc2)nc1Sc1c(Cl)cccc1Cl | active: 20.6 µM
26 | COC(=O)c1sccc1NC(=O)c1ccc(Br)s1 | inactive
27 | CC(C)C[C@@H](CN1CCC[C@@H]1CN1C(=S)NC[C@@H]1Cc1ccccc1)N1C[C@H](Cc2ccc(O)cc2)N(CC2CCCCC2)C1=S | inconclusive [inhibitor, single point]
28 | COc1ccc(C(=O)N2CCC3(CCCN(C(=O)NC(C)C)C3)CC2)cc1 | inactive
29 | O=C(NCCc1nc2ccccc2[nH]1)/C(=C/c1ccco1)NC(=O)c1ccc(Br)cc1 | active: 23.1 µM
30 | Cc1ccc(C2(CCNC(C)c3cccs3)CCOC(C(C)C)C2)cc1 (configuration not stated) | inactive
31 | CC(=O)NCCNC(=O)c1ccc(Cn2c(=O)[nH]c3ccsc3c2=O)cc1 | inactive
32 | COc1ccc(NC(=O)C[C@H]2C(=O)N(Cc3ccccc3)C[C@@H]2CSC)cc1 | inconclusive [inhibitor, single point]
33 | CCC/C(C#Cc1cc(OC)cc(OC)c1)=C1/c2ccccc2C(=O)N1c1ccccc1 | active: 25.9 µM
34 | CCc1cc(C(=O)OC)c(NC(=O)CN2CCN(C(=O)c3ccco3)CC2)s1 | inconclusive [inhibitor, partial curve, poor fit]
35 | Cc1cc(C)c(CN2CCN(CCCn3ccc(NC(=O)OCc4ccccc4)nc3=O)CC2)c(C)c1 | active: 18.4 µM
36 | CCC(CC)C(=O)NCCc1cc2ccc(C)cc2[nH]c1=O | inactive
37 | Cc1nc2ccccc2nc1OCc1cccc(Cl)c1 | inconclusive [inhibitor, partial curve]
38 | CC1CCN(CC(C)OC(=O)c2ccc3c(c2)OCCO3)CC1 (configuration not stated) | inactive
39 | COc1ccc(OCc2cc(C(=O)NC(C)Cc3ccccn3)no2)c(Cl)c1 (configuration not stated) | inconclusive [inhibitor, single point]
40 | CCOC(=O)c1c(CN2CCN(C)CC2)n(-c2ccccc2)c2cc(Br)c(O)cc12 | inconclusive [inhibitor, single point]
41 | COc1ccc(NC(=O)C2COc3ccccc3O2)cc1 (configuration not stated) | inactive
42 | CC(C)c1ccc(NC(=S)NN(c2ccccc2)c2ccccc2)cc1 | active: 13 µM
43 | COc1c(Cl)cnn(-c2ccc(C)cc2)c1=O | inconclusive [inhibitor, single point]
44 | COc1ccc(C2SCCN2C(=S)Nc2ccc(F)cc2)cc1 (configuration not stated) | inconclusive [inhibitor, partial curve, poor fit]
45 | Cc1c(C(=O)NCc2ccc(C(F)(F)F)cc2)sc(=O)n1Cc1cccc(F)c1 | inconclusive [inhibitor, single point]
46 | O=C(NCc1cccnc1)C1CCCN(S(=O)(=O)c2cccc3nsnc23)C1 (configuration not stated) | inactive
47 | Cc1ccc(C(=O)Nc2nc(-c3ccc(F)cc3)cs2)o1 | inconclusive [inhibitor, single point]
48 | O=C(c1[nH]ncc1-c1cccc(Br)c1)C1CO1 (configuration not stated) | active: 1.64 µM

Row | SMILES | Potency
49 | COc1ccc2[nH]c3c(c2c1)CCN1C(=O)C(CC(=O)NCCN2CCOCC2)C[C@H](C(=O)N(C(C)C)C(C)C)[C@@]31C (some centres not stated) | inconclusive [inhibitor, partial curve, poor fit]
50 | FC(F)(F)c1ccccc1Cc1c(-c2ccc(Cl)cc2)nc2c3ccccc3ccn12 | inconclusive [inhibitor, single point]
51 | CCOc1cc(C(=O)OCC(=O)Nc2ccc(Cl)cn2)ccc1OCC(=O)N1CCOCC1 | inactive
52 | CC1C(=O)N(Cc2cn(Cc3ccco3)nn2)CCS(=O)(=O)N1Cc1ccc(-c2ccc(F)cc2)cc1 (configuration not stated) | inconclusive [inhibitor, single point]
53 | CC(C)C1COc2cc3oc(=O)ccc3cc2O1 (configuration not stated) | inactive
54 | COc1ccccc1N1C(=O)C(Cl)=C(Nc2ccccc2O)C1=O | inconclusive [inhibitor, partial curve]
55 | O=C(N[C@H]1C/C=C\C[C@H](CC(=O)N(CCO)Cc2ccccc2)C(=O)N[C@@H](c2ccccc2)COC1=O)OCC1c2ccccc2-c2ccccc21 | active: 7.31 µM
56 | COc1cc(OC)c2c(-c3cccc(-c4cccc(N)c4)c3)cc(=O)oc2c1 | active: 4.61 µM
57 | COc1ccc2sc(N(CCCN(C)C)C(=O)c3ccc(C(=O)c4ccccc4)cc3)nc2c1 | active: 16.4 µM
58 | CCOC(=O)c1ccc(-c2c(C)cc3oc(=O)cc(-c4ccccc4)c3c2C)cc1 | inconclusive [inhibitor, single point]
59 | COc1cccc(CNC(=O)c2nn(C)c3c2CS(=O)(=O)c2ccccc2-3)c1 | inconclusive [inhibitor, partial curve]
60 | CCOC(=O)c1c(-c2ccc(C)cc2)csc1NC(=O)CCSc1nnc2ccccn12 | active: 23.1 µM
61 | O=C(NCc1cccc2ccccc12)c1cccs1 | inconclusive [inhibitor, partial curve, poor fit]
62 | CSc1nc(N)nc2c1ncn2CC(=O)N1CCN(c2ccccn2)CC1 | inactive
63 | Cc1cccc(S(=O)(=O)NC(=O)C2(C)CCN2C(=O)c2ccccc2CCc2ccccc2)c1 (configuration not stated) | inconclusive [inhibitor, full curve, poor fit]
64 | Cc1ccc(-c2ccc(CN3C(C(C)C)C(=O)N(Cc4cn(CCC5OCCCO5)nn4)CCS3(=O)=O)cc2)cc1 (configuration not stated) | inconclusive [inhibitor, single point]
65 | Cc1ccc(OCCNC(=O)c2cncc(Br)c2)cc1C | inconclusive [inhibitor, single point]
66 | COc1ccc(NC(=O)CSC2=Nc3ccccc3C3=NC(CCC(=O)NCCc4ccccc4)C(=O)N23)c(OC)c1 (configuration not stated) | active: 23.1 µM
67 | CCCCC1S/C(=N/N=C/c2ccco2)NC1=O (configuration not stated) | active: 16.4 µM
68 | NNC(=O)COc1cccc(Oc2ccccc2)c1 | inconclusive [inhibitor, partial curve]
69 | C=C1/C=C(\C)C(C)(O)CC(O)CC(=O)C(O)C(O)C(C)CC(C)OC(=O)/C(C)=C/CC/C=C/C(OC)C(O)CC(C)C1 (configuration not stated) | inconclusive [inhibitor, single point]
70 | CS(=O)(=O)N(CC(=O)N1CCCC1)c1ccccc1F | inactive
71 | Cc1sc2ncnc(N3CCC(C(=O)NNC(=O)COc4ccc(Cl)cc4)CC3)c2c1C | inconclusive [inhibitor, partial curve]
72 | CCOc1ccc(NC(=O)Nc2cc(C)ccc2F)cc1 | inconclusive [inhibitor, full curve, poor fit]

Source: PubChem BioAssay AID686979 (National Center for Advancing Translational Sciences (NCATS), 2013)
